The other results are listed elsewhere or left out. At the low end of the ranking, values are background and their order means little. Measured with an extract: partners may take part in the binding.
molecular target: T1, HNF4alpha2 (COS-7 nuclear extract) (UniProt P41235); experiment: protein-binding microarray; details: COS-7 nuclear extract on double-stranded Agilent 4x180k PBM; binding buffer, salt, pH and temperature not given; high values mean tight binding; double strand, one strand shown; sequences stand for … in …GCCTAGGGAGATTAGAGTATCGGTCGA
T1 sequence: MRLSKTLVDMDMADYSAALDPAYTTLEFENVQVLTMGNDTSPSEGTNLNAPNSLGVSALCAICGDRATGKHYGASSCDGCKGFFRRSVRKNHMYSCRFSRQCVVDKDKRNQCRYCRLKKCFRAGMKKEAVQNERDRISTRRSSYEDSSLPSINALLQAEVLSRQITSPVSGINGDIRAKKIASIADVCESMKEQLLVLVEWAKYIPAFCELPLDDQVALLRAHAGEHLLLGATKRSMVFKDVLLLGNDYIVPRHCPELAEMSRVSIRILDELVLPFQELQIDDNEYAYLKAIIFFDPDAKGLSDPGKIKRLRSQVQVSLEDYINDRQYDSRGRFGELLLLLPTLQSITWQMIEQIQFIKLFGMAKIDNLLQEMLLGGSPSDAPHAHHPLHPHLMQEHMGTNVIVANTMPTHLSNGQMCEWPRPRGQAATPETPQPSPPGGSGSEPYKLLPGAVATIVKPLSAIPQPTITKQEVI

| Sequence | binding signal (log2 normalized intensity) |
| --- | --- |
| TCAGACTGAGAGAGCAGGGCCCGAGGCCTT | -1.2 |
| ATTACCAATGAGAAACCTCAAAGGTTAGGG | -0.928 |
| ATAAGCGAAGATAACCTACTTAAAAAGAAA | -0.986 |
| TCCAGAAGAAAGGGGAGATAATGCCAGAAA | -0.923 |
| GAGGGCGAGAAGTAGGTGCAAGGGAATGTA | -0.245 |
| TATCAGAAGAACTGCACTGTATCTTATCAG | -1.04 |
| TACACAGTGCCTGCTTGCAGATAAAACATT | -0.831 |
| GGGCAGAGAGGCTGCCATCCCACATTCCAC | -1.13 |
| TCTGACCTCTTTCAAGCCTGAACAAACATG | 0.93 |
| ATAAAGGGTGTGAGAGAGAAGGCAAGATTT | -0.713 |
| TATGAGCTATGATTGCGCCACTGCATTCCA | -1.12 |
| CCTTCCGGAGGCTCTGCTGAAGAGAAGCCA | -1.13 |
| GTTGGCAAACAAAAAGCTCTGCCTACGCAT | -1.13 |
| GACCTCATTTGCTCCCAGTGCACACAGACT | -1.02 |
| GGAAAGCTGCAGGCATGAGAGGTGCTGCAT | -1.03 |
| GAGCCAGAGGGGCCAGGAACGTCACACTGA | -1.08 |
| TCAATGGTTGCACTCTGGTGCCCTCTGAGT | 2.17 |
| CCTCCTCTGAAGGAACTTCTGGTTCTTTCT | 0.402 |
| GGCTCTCCCGGGGCGGGGGTGACCAGATTA | 1.43 |
| CCTAAAATTGACCTTTGATCACTCATGGGC | 8.21 |
| TTAGCTATTTGACCTTCGGCCTCAATTATA | 6.43 |
| TCCGAACCTGCCAAAGAAGAAAACAATGAC | -1.2 |
| TTATCTAAATGGAGTTACTGTTGCTTCGTG | 1.57 |
| CCTCTGAGTCCTCTTCCCAACTTGGCCTCA | 1.49 |

| Sequence | binding signal (log2 normalized intensity) |
| --- | --- |
| ACTCTGTGAGAAGGGGTAGTGATCCTGGTA | 0.899 |
| ATCCCCTCCTGGACTTTGGTCTCATGGGCC | 6.4 |
| TGGCGCTGTTGACCTTGAAATGCCATGTGA | 1.37 |
| ACCTTTAAGCACCCAGAGCCCCACCGTTGT | 2.83 |
| GTAACGTGTCAGAGGTCACTCAGCAATAAA | 1.36 |
| TTAGTAACTGACTTTAACTTCAAAGTCCTG | 0.735 |
| GAGCATATAAAAGCAGTCTACACTAGGAGG | -1.1 |
| TCACAATCACAAATGCCTTCAGGGGCATTT | -0.657 |
| GAAAAAGCCCAAGAAACTTCAAAGAGTGCA | -1.02 |
| AATAATCTAGAAACCAGTGAGAAAATGGTG | 0.485 |
| TCCGAACTATTTGGTGCACAAGAGGGCAGT | 1.58 |
| GGATCCTTGGAGGACCTTGGGTTCATTTTA | 1.97 |
| CCCTGGTCCAGGCCATGCAACAGCCTCCTC | -1.19 |
| ATAGCCACTGGGGTCATGGAGCTGGAGGGC | 0.136 |
| ATCGCCCTTTGAGGAGGCCTTTCCTGACCC | 2.78 |
| CTCCGGTCAAGATCAAGTGGAGCCTCTCCT | -1.07 |
| TAGGTTTTTTTTTTTTTTAACGGTCTGCCC | 2.59 |
| GTTGCCCGCTTGGCCCTCTTCCAAGTGTTC | 1.46 |
| GAAATAAAAGAGCCTGAGCCACTTCACTGG | -1 |
| TATGTGCTCACTCCTGGGACAAGGACTTTG | 2.85 |
| TTGGGAGGGAAGAGGCAAGGAAAGATAAAT | -0.832 |
| GAGCTCTGTGTCAAAAATCAGGGACAAAGT | 1.49 |
| CCACACAGCCTGTCAAAGGGAGAAAGACAT | -1.14 |
| TTCAAATCCTTGCTCTGTGGTTTAGTGGTT | 2.31 |

| Sequence | binding signal (log2 normalized intensity) |
| --- | --- |
| TGCATGCTGCCAAACTGCCCAGCAGAAAAG | -1.11 |
| CCAAGATTGAGGCCAGCAAAGGGCAAGTAA | 0.975 |
| ACATGAGTAAACAAGCTCTTTAGATAAACT | -1.05 |
| ACTACATTCTTTGAAGACTAGGCTCCAGAT | -1.1 |
| TCACGTTGGGGGTGCTGATGTTAACACAAG | -0.824 |
| AGCAAACCCCAGCTGAACTCACTACCCTAT | -1.15 |
| TTTGGGTAGGAATAGAGCTCTAAACCACCC | -1.13 |
| CTGCCCTACTGTATATCCTGACACAGGAAG | -0.467 |
| AGTTCTGGGCCAAAGGTCATACCTGTCTAG | 5.59 |
| AGGAGAAGCTGGAAGGACAGCATTCCTGTC | -1.04 |
| AAAGGTCAGGAATCGCATTGCAAAATCCAT | -1.07 |
| AATAAATGTCATTTAAGACGAGTGGTTTGA | 0.537 |
| CTCCAAATTCCAGGATCCAAGATCCAACTC | -1.24 |
| GGGGCTGCTGGCATCTCATTACTGACAGAG | -1.26 |
| ACCTCTGTCCTTGGCCTCACAGACAGATAG | -1.12 |
| TGTTTATCCTGCCTCCATTAATTAACCTTT | 4.68 |
| ACTCAGTTGAAGTTCCAGAAGACTACAAAT | -1.14 |
| TTGCCCTGTGGTCTAGCTTGTTCTCTCCCC | 2.4 |
| TAAGACTATCTCATGACAGACCTAAGAACT | -1.16 |
| AAGCAGCATTAGCCTCTATGTCAGGCCATT | -1.16 |
| GCCCAGAGCCAGGTGTGCTGAGGAAACTGA | -0.977 |
| AAAGTTTCCTCTCCTGCCCTACTCCCTTAA | 2.68 |
| CTTGCTTTGTCACCCAGGCTGAAGTCCAGT | 2.13 |
| TCACAATGGGCCCCAGTAAAAACAGTGGGC | -1.01 |

| Sequence | binding signal (log2 normalized intensity) |
| --- | --- |
| GCTGACAGCAGAGAGTTTTCCTTGGCTGTG | -1.05 |
| GAGGCACAGTCTGCTTTCAGAGATGATAAG | -0.926 |
| TATTTCAAGAATGCAAAGCCCTGGCTGACC | 0.797 |
| GTATCCCTTGCTCAACTCCCTCTGAAGGGA | -1.22 |
| AGCCTCACCAACAGGATTGTGAAACGTTTG | 0.703 |
| AAAAAGCCTGAGCATCTTATCAGCAGGAGA | -1.15 |
| TGGACTTTGGAATTAAGGAGATTTGGCTTT | 4.84 |
| AGGCAGTGTCACAGAAATCATGTAGCCAGA | -1.16 |
| AAGTGTTTAACTCTTTATCTTTCTCCTACA | -1.06 |
| TATCAGCAGGAGGAGGAGCCAGTGAAGACT | -1.01 |
| CTGTCTGCCATGGGCCTGGCTGAGCCTGGG | -1.12 |
| TTGTTTGTTTTGAGGGTTAAAGGAGATAAT | 2.03 |
| CAGAAAGGCAAGAAGTATGACAACAAAGCA | -1.05 |
| TTTGAAACATAACAGCAACAACACAGATCA | -1.2 |
| TCTTGGCTTCAAAGGTCACTGTCCTAATTT | 3.85 |
| AAAAAACACTCTCAATCTTTGCCCTCTTGG | 2.88 |
| GCTGGAGGGCAAAGGTCAGAGGCTGATTTC | 6 |
| AACCCCACACCTCCCTTGCACCAGTTTCTC | 2.3 |
| TACCACCGTATTCCTAGCTCCTAGCACGTT | -1.17 |
| AAAAGCTTATCTGCACAATGAAACTTGGTC | 0.73 |
| CAGAGGGGTTCCTCAGTAAATGCTGGAGAT | -0.273 |

Source: PMC10726135
